Among all 150,000 compounds or so, about 540 (0.36%) showed an effect of 50% or more. This is one part of the list.
system: Plasmodium falciparum; assay: Primary screen in NF54 nanoGlo assay, in single point, at 2uM, 72h; a lower Z score goes with more inhibition; format: functional, Erythrocyte; settings: timepoint 72 hour

Row | SMILES | % Inhibition | Z score
1 | c1cncc(-c2cc(CN[C@H]3CCOC34CCCCC4)n[nH]2)c1 | 18% | -2.3
2 | COCCn1nc(-c2ccc3c(c2)OCO3)ccc1=O | 4% | -0.57
3 | CN1CCN(S(=O)(=O)c2cccc(F)c2)C[C@H]1c1ccccc1 | -6% | 0.96
4 | COc1ccc(Cl)cc1S(=O)(=O)N1CC[C@@]2(CCCNC2=O)C1 | -10% | 1.93
5 | Cc1cnc(C(=O)N2CCOc3ccc(CN4CCN(c5ccccc5)CC4)cc3C2)cn1 | 5% | -0.67
6 | O=C(CC(=O)NCc1cccnc1)NCc1cccnc1 | -20% | 2.36
7 | CCCN1CCN(CCCNC(=O)c2cc3cc(S(=O)(=O)N(C)C)ccc3n2CC)CC1 | -15% | 2.13
8 | CC(c1nnnn1C)N1CCCC(c2nc3c(s2)CCCC3)C1 (configuration not stated) | 7% | -1.03
9 | Cc1ccc(-n2ncc3c(N4CCCN(C(=O)C5CCCC5)CC4)nc(C)nc32)c(C)c1 | -8% | 1.32
10 | O=c1cnn(Cc2c(Cl)cccc2Cl)c2ccccc12 | -6% | 0.72
11 | CC(C)(C)CN1C[C@@H](NC(=O)C2=NNC(=O)CC2)CC1=O | -8% | 1.29
12 | CCOC(=O)c1sc(N(C)Cc2nnc[nH]2)nc1C | -4% | 0.39
13 | Cc1nn(Cc2cccnc2)c(=O)n1C | -5% | 0.69
14 | CCN(Cc1ccccc1Br)[C@H]1CCNC1=O | -10% | 1.14
15 | C[C@@H]1CN(CC2CCCN(C(=O)OC(C)(C)C)C2)C[C@H](C)O1 (some centres not stated) | -4% | 0.67
16 | C[C@H]1CCCN(c2ncnc(Oc3ccc4c(c3)OCO4)c2N)C1 | 4% | -0.73
17 | O=C(NCCc1csc(N2CCCC2)n1)c1cscn1 | -17% | 2.36
18 | FS(F)(F)(F)(F)c1ccc2nc(NCc3nnn[nH]3)sc2c1 | -12% | 2.22
19 | Nc1c2c(nc3c1cnn3-c1cccc(F)c1)C[C@H](c1cc(F)cc(F)c1)CC2=O | -11% | 1.43
20 | CCOC[C@H]1CCN(C(=O)Nc2ncc(C(C)(C)C)s2)C1 | 16% | -1.91
21 | Cc1cc(NCCc2ncccc2C)nc(C)n1 | -11% | 1.24
22 | O=C(CC1CCCC1)Nc1ccccn1 | -6% | 0.64

Row | SMILES | % Inhibition | Z score
23 | COc1ccc(CNc2nccc(-n3nc(C)cc3C)n2)c(OC)c1 | -3% | 0.48
24 | CCc1ccc([C@@H]2COCCN2Cc2nnc(C)o2)o1 | 2% | -0.27
25 | CN(c1nccc(C#N)n1)C1CCCCCC1 | -14% | 1.86
26 | CCOc1ccc(CNC(=O)[C@H]2CCCN(S(=O)(=O)N3CCC(C)CC3)C2)cc1OC | -13% | 2.28
27 | O=C(NCc1cccnc1)c1cc(-c2cccc3ccccc23)[nH]n1 | 33% | -3.73
28 | CN(Cc1nc2ccccc2c(=O)[nH]1)C(=O)c1ccc2c(c1)OCO2 | -5% | 0.88
29 | CCc1nsc(N2CCC[C@H](c3n[nH]c(N)n3)C2)n1 | -8% | 1.58
30 | Cc1cccc(C(=O)N2CCC(NC(=O)c3ccoc3C)CC2)n1 | -8% | 1.51
31 | CS(=O)(=O)N[C@H]1CCCN(C(=O)C2CCC2)C1 | -6% | 0.54
32 | COC(=O)[C@H](CO)NC(=O)c1cccc(NCC(C)(C)C)c1C | 6% | -0.72
33 | COC(=O)c1n[nH]cc1CN1CCC[C@H]1c1nc2ccccc2s1 | -5% | 0.51
34 | COC(=O)c1ccc(Nc2cc(C(=O)N3CCC[C@H](C)C3)nc3ccc(C)cc23)cc1 | 3% | -0.64
35 | COc1cnc(N(C)C(=O)c2cnc(C(C)(C)C)s2)nc1 | -9% | 1.31
36 | Cc1c(C(=O)N(CCc2ccccc2)CC(=O)O)cccc1N1CCNC1=O | 6% | -1.17
37 | C[C@H](NCc1ccnn1C)c1cn[nH]c1 | -15% | 2.92
38 | CC/C=C(/CN1CCC(N2CCN(CCO)CC2)CC1)c1ccccc1 | -6% | 0.72
39 | c1coc(-c2nc(C3CC3)nn2C2CCCCC2)c1 | -9% | 0.98
40 | O=C(Nc1cccc(-c2nc3ccccc3s2)c1)c1ccc(-c2ccccc2)cc1 | 2% | -0.33
41 | Cc1ccccc1NC(=O)N1C[C@@H]2[C@H]3CC[C@H](CC3)[C@@H]2C1 | 9% | -1.8
42 | Cn1c([C@H]2CCN(C(=O)C3CCCCC3)C2)nc2ccccc21 | 5% | -0.88
43 | O=C(Cc1cccnc1)NC[C@H]1CCCOC1 | 7% | -0.76
44 | CCN(CC)CC#C[C@H](C)OC(=O)c1cccc(C(=O)NC)c1 | -3% | 0.45

Row | SMILES | % Inhibition | Z score
45 | Cc1[nH]c2ccc(CNc3nccc(N)n3)cc2c1C | -5% | 0.52
46 | C#CCCC1(CCC(=O)N2C[C@@H]3CCCN3c3ccccc32)N=N1 | -7% | 0.87
47 | COCc1noc(CNc2cc3c(cc2Br)CCC3)n1 | -11% | 1.42
48 | CCN1CCC2CCC(C1)N2C(=O)c1cc(O)cc(O)c1 (configuration not stated) | -6% | 0.96
49 | CCC(=O)N1CCCC[C@H]1c1nnc2n1CCN(C(=O)NC1CCCC1)C2 | -3% | 0.41
50 | CC1CCC(N2CC(=O)N(C3CCCC3)[C@@H](c3ccc(Cl)cc3)C2=O)CC1 (some centres not stated) | 2% | -0.38
51 | COc1ccc(OCC(=O)NC(C)C)c(C(N)=O)c1 | 3% | -0.49
52 | CC[C@@]1(C)CCCN(C(=O)Cc2c(C)noc2Cl)C1 | 85% | -13.67
53 | Cc1ccnn1CCC(=O)N[C@H]1CCC[C@H]1Cc1ccc(F)cc1 | -18% | 1.89
54 | CC[C@H](C)NC(=O)CN1CCN(C(=O)c2ncoc2-c2ccc(C)cc2)CC1 | -6% | 0.78
55 | Cc1[nH]c2ccccc2c1C1CCN(CC2(CO)COC2)CC1 | -1% | 0.18
56 | c1csc(-c2nnc(C3CCCCC3)o2)c1 | -15% | 2.34
57 | N#Cc1c(N)nc2c(c1-c1c[nH]cn1)CCc1occc1-2 | 3% | -0.52
58 | c1cc(CN2CC(N3CCOCC3)C2)cc(-c2ccco2)c1 | -18% | 1.97
59 | COc1ccc(CC(=O)NO[C@@H](C)C(=O)Nc2c(C)cc(C)cc2Cl)cc1OC | 2% | -0.19
60 | COc1ccc(CNC(=O)Cn2cnc3oc(C)c(C)c3c2=O)cc1 | -11% | 1.32
61 | COc1cccc(N2CCN(C(=O)c3cc(N)ccn3)[C@@H](C)C2=O)c1 | -16% | 1.97
62 | Cc1cnc(NC(=O)C2CCC(=O)N(C)C2c2cccc(F)c2)s1 (configuration not stated) | 34% | -4.6
63 | O=C(Cc1ccccc1)N[C@H]1CCCc2c1[nH]c1c(Cl)cccc21 | -16% | 3.1
64 | O=C(NCc1ccc2c(c1)OCO2)c1nn(-c2ccc(F)cc2)c2ccccc2c1=O | -5% | 0.69
65 | O=C(NC1CCCC1)N1CCC[C@H](C(=O)N2CCN(c3cccc(Cl)c3)CC2)C1 | -5% | 0.92
66 | c1ccc(CN2C3CCCC2CC(NCc2cc[nH]n2)C3)cc1 (configuration not stated) | 2% | -0.44

Row | SMILES | % Inhibition | Z score
67 | Cc1nc(C2CN(c3ncnc4[nH]ncc34)C2)n[nH]1 | -9% | 0.95
68 | CN(CCNS(=O)(=O)c1ccc2ccccc2c1)C1CC1 | -6% | 0.59
69 | COc1ccc(-n2cc(-c3ccc(Cl)cc3)nc2NC(=O)CN(CC(C)C)C(C)=O)cc1 | 4% | -0.79
70 | Cc1noc([C@H](C)NC(=O)c2nccn2C)n1 | -4% | 0.71
71 | CN(CCCc1cccnc1)C[C@H]1COCCO1 | -12% | 1.54
72 | CC(C)CN1CCC(C(=O)N2CC3CCC(NC(=O)OC(C)(C)C)C3C2)C1 (configuration not stated) | -2% | 0.31
73 | COc1ccc(CN2CC(c3ccccn3)C2)cc1OC[C@@H](O)CN(C)C(C)C | 4% | -0.66
74 | COc1ccccc1N1CCN(C(=O)Cc2ccc(C)nc2)CC1 | -15% | 2.38
75 | Cn1c(=O)c2c(n(C)c1=O)[n+](C)cn2Cc1ccccc1 | 29% | -3.75
76 | Cc1ccc(CNC(=O)N2CCC3(CC2)CN(C(C)C)[C@@H]3c2ccccc2)cc1 | 0% | 0
77 | CCOC(=O)c1snc(C(=O)N2CCOCC2)c1N | 3% | -0.44
78 | c1ccc2c(-c3nc4c(c(N5CCC(N6CCCC6)CC5)n3)CNC4)c[nH]c2c1 | -14% | 1.36
79 | Cc1ccc(NC(=O)[C@@](F)(Cl)C(F)(F)F)c(C)c1 | -8% | 0.88
80 | Cc1ccsc1C(=O)NC(C)(C)c1nc2c(c(C(N)=O)n1)OCO2 | -3% | 0.56
81 | CCCn1ccnc1CN1C[C@@H]2CC[C@H]1CN(Cc1c(C)noc1C)C2 | 0% | 0.04
82 | Cc1cnc(CN2CCC[C@@H](NC(=O)OC(C)(C)C)C2)s1 | 1% | -0.13
83 | FC(F)c1cncc(-c2cnn(C[C@H]3CCOC3)c2)c1 | -5% | 0.69
84 | O=C([C@H]1CCC(=O)N(C2CCCC2)C1)N1CCN(c2nccs2)CC1 | -9% | 1.82
85 | Cc1[nH]ncc1C(=O)NC[C@H](O)c1cc2ccccc2s1 | -2% | 0.4
86 | Cc1nc(Cn2cc(C3CCCCC3)nn2)oc1C | -6% | 0.87

Reference: ChEMBL document CHEMBL4888484, “Replenishing the malaria drug discovery pipeline: Screening and hit evaluation of the MMV Hit Generation Library 1 (HGL1) against asexual blood stage Plasmodium falciparum ,using a nano luciferase reporter read-out” (2022)
